Hit rate of the full screen: of about 270,000 compounds, about 5,800 (2.1%) were called active. Not shown: some 16% with an inconclusive outcome. The call rests on the fitted dose curve; in most records, active means well fitted inhibition curve with a large enough effect; inconclusive means small, poorly fitted or top-dose-only effect; inactive means flat fitted curve, though single readings scatter. Only a part is listed here, and it is no random draw. The source holds several records for some structures; these can differ, active in one and inactive in another.
The compounds below were run against Microtubule-associated protein tau (Homo sapiens) (UniProt P10636) (assay: qHTS for Inhibitors of Tau Fibril Formation, Thioflavin T Binding). Details: recombinant tau K18 P301L (four-repeat tau fragment), heparin-induced fibrillization, ThT fluorescence; series mostly up to 57.4 µM; activity, negative = inhibition: at the top concentration.
Method in brief: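 Recombinant human tau K18 fragment […] carrying P301L, 15 uM unlabeled plus 0.24 uM Alexa 594-labeled, was fibrillized with 20 uM heparin in 100 mM sodium acetate pH 7 for 6 hr at 37 C; 30 uM ThT fluorescence read after 1 hr.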
Further: nearly all actives have a fitted effect of over 55% in size.
On the % scale 0 is the no-effect control and ±100 the full control effect; potency means the concentration at half of the fitted maximal effect.

Chain of UniProt P10636 (P10636 whole entry, looked up, the tested form may be a part): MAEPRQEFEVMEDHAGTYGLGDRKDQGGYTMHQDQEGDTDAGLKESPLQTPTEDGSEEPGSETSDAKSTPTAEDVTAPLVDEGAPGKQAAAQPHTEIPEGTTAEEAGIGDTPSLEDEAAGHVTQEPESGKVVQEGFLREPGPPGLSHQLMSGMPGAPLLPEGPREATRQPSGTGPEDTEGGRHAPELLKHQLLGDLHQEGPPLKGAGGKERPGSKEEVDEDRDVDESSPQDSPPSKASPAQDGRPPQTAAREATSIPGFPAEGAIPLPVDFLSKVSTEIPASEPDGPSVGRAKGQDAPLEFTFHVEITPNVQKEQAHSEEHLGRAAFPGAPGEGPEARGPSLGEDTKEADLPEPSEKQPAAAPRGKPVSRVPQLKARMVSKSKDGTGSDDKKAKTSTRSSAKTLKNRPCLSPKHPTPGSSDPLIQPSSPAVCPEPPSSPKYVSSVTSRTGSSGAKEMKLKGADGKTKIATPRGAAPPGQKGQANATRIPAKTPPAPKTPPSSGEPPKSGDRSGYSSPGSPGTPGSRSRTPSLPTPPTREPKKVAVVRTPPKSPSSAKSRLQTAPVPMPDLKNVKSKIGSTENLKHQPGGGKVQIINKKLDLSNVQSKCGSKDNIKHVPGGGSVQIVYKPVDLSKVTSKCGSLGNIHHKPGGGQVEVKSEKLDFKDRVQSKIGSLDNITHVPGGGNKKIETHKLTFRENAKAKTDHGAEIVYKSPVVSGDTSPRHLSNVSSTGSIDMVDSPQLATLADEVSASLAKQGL

Row | Compound | activity, negative = inhibition | Potency
1 | CN1C=CC=C/C1=C1/SC(=S)N(Cc2ccccc2)C1=O | inactive: 6.2% | 
2 | Cn1c(SCC(=O)N/N=C/C=C\c2ccco2)nc2ccccc21 | inactive: -2.13% | 
3 | O=C(/C=C/c1ccco1)NC(=S)Nc1ccc(Cl)cn1 |  | active: 22.4 µM
4 | Cc1c(N=C2C=CC(=O)c3ccccc32)c(=O)n(-c2ccccc2)n1C |  | active: 2.24 µM
5 | COc1ccc(CN2C=C3C(=O)C(C)(OC(=O)C4CCCC4)C(=O)C=C3C=C2c2ccsc2)cc1 (stereo not drawn) | inactive: -8.5% [at 11.5 µM] | 
6 | O=C1OCCN1C(=O)[C@H]1[C@H](c2ccc(F)cc2)C(c2ccc(F)cc2)=NN1c1ccc(Br)cc1 | inactive: 1.44% | 
7 | CNC(=O)c1cc(Nc2nnc(-c3ccc(O)cc3)c3ccccc23)ccc1OC | inactive: -10% | 
8 | Cc1ccc(-c2noc(CSc3nnc(Cc4ccccc4)n3-c3cccc(C)c3)n2)cc1 | inactive: -15.3% | 
9 | Cc1cncn1CCc1nc2c3ccccc3nc(SCC(=O)Nc3cccc(Cl)c3)n2n1 | inactive: 1.11% | 
10 | CCCCCc1c2c(cc(O)c1C(=O)O)OC(=O)c1c(cc(OC)cc1C(=O)CCCC)O2 | inactive: -7.2% | 
11 | N#C/C(=C\c1coc2ccc(O)cc2c1=O)C(=O)Nc1nc2ccccc2s1 |  | active: 17.8 µM
12 | Cc1cc(C)c2[nH]c(=O)c(C(c3nnnn3CC3CCCO3)N3CCCC(C)C3)cc2c1 (stereo not drawn) |  | active: 31.6 µM
13 | OCCN1CCN(CC/C=C2/c3ccccc3Sc3ccc(C(F)(F)F)cc32)CC1 | inactive: -15.6% | 
14 | N#C/C(=C\C=C\c1ccccc1)C(=O)Nc1ccccc1 | inactive: -7.86% | 
15 | CCN(CC)c1ccc(N2C(=O)/C(=C\c3cccs3)SC2=S)cc1 | inactive: -15.9% | 
16 | O=C(O)CN1C(=O)c2cccc3cccc(c23)C1=O | inactive: -0.32% | 
17 | Cc1c(C(=O)N(Cc2ccc(N(C)C)cc2)C2CCS(=O)(=O)C2)oc2ccccc12 (stereo not drawn) | inactive: -7.63% | 
18 | C=CCOC(=O)NC(c1ccc(F)c(F)c1)C(C(=O)COC)C(=O)OC (stereo not drawn) | inactive: 3.51% | 
19 | NNCCc1ccccc1 | inactive: -16.3% | 
20 | CCO[C@@H]1OC(C(=O)NCc2ccccc2)=C[C@H](c2coc3ccccc3c2=O)[C@H]1CCCO | inactive: -2.33% | 
21 | O=c1[nH]n2c(=O)c3c([nH]c2c1N=Nc1ccccc1)CCC3 |  | active: 3.16 µM
22 | O=C1Nc2ccc(Br)cc2/C1=C/C(=O)c1ccc2c(c1)OCO2 |  | active: 25.1 µM
23 | COC(=O)[C@@H](N)CSC/C=C(\C)CC/C=C(\C)CCC=C(C)C |  | inactive
24 | COc1ccc2c(c1OC)C(Cc1ccccc1)N1CCc3cc4c(cc3C1=C2)OCO4 (stereo not drawn) |  | active: 15.8 µM

Row | Compound | activity, negative = inhibition | Potency
25 | Cc1cc(O)ccc1Nc1nc2ccccc2nc1Nc1ccc(O)cc1C |  | active: 14.1 µM
26 | CCCCCCC(=O)Nc1nc(C)c(-c2csc(Nc3ccc(Cl)cc3)n2)s1 |  | active: 5.01 µM
27 | Cc1ccc(NC(=S)c2nc3ccccc3[nH]2)cc1 |  | active: 7.94 µM
28 | CCCCC1=CC2=CC(=O)C(C)(OC(=O)CC)C(=O)C2=CN1CCCCO (stereo not drawn) | inactive: 3.34% [at 11.5 µM] | 
29 | Nc1ccccc1C(=O)/C=C/c1ccc2c(c1)OCO2 | inactive: 4.91% | 
30 | Oc1ccc(C2CNCCc3c2cc(O)c(O)c3Cl)cc1 (stereo not drawn) | inactive: -18% | 
31 | COc1ccc(N/C=C/C(=O)c2ccc3c(c2)OCO3)cc1OC |  | active: 5.01 µM
32 | COC/C=C/C1=CC2=CC(=O)C(C)(OC(=O)c3cnc4ccccc4n3)C(=O)C2=CN1C(CO)CO (stereo not drawn) | inactive: -3.67% [at 11.5 µM] | 
33 | Cc1ccc(N/C=C/C(=O)c2sc(-c3ccccc3)nc2C)cc1 |  | active: 2 µM
34 | CCC(C)OC(=O)C1=C(C)O[C@]23OC(N)=C(C#N)[C@]12C(=O)c1ccccc13 (stereo partly drawn) | inactive: -7.41% | 
35 | C#CCNC(=O)C1=C[C@@H](c2cn(C(C)=O)c3ccccc23)C[C@@H](OCc2ccc(CO)cc2)O1 | inactive: -11.4% | 
36 | Cc1ccc(N(CC2=NCCN2)c2cccc(O)c2)cc1 |  | inactive
37 | Brc1ccc(C2=NC(Cc3ccccc3)CO2)cc1 (stereo not drawn) | inactive: -17.1% | 
38 | O=C1c2ccccc2C(=O)C1c1ccccc1 | inactive: -5.93% | 
39 | COC(=O)/C=C1/S/C(=N/NC(=O)c2ccccc2)NC1=O | inactive: -12.6% | 
40 | O=C(O)C(=O)/C(=C\c1ccc([N+](=O)[O-])cc1)c1ccc2ccccc2n1 |  | active: 15.8 µM
41 | Clc1ccccc1CSc1nnc(-c2ccco2)c(-c2ccco2)n1 |  | active: 17.8 µM
42 | C=C(C)[C@H]1CC=C(C)/C(=N/NC(=O)CNc2ccccc2OC)C1 | inactive: -11.3% | 
43 | NC(=O)c1ccccc1O | inactive: -3.35% | 
44 | CCOC(=O)N1CCC(=C2c3ccc(Cl)cc3CCc3cccnc32)CC1 | inactive: -12.3% | 
45 | COc1ccc(-c2coc3cc(O)ccc3c2=O)cc1 | inactive: -19.3% | 
46 | CCCCC1=CC2=CC(=O)C(C)(OC(=O)CC)C(=O)C2=CN1c1ccc(OC)cc1 (stereo not drawn) | inactive: 4.84% [at 11.5 µM] | 
47 | CCCCC1=CC2=CC(=O)C(C)(OC(=O)CC)C(=O)C2=CN1CCOC (stereo not drawn) | inactive: -0.8% [at 11.5 µM] | 
48 | O=C(CSc1nc2c([nH]c3ccccc32)c(=O)n1-c1ccc(F)cc1)NCc1ccco1 | inactive: -15.9% | 

— PubChem BioAssay AID1460 (National Center for Advancing Translational Sciences (NCATS), 2008)
